# Data as given in the supplement of paper PMC11417369.
# ± gives the standard deviation of the averaged measurements. This is one part of the list.
# System: PfAP2-EXP AP2 domain (GST-tagged)
# Assay: gcPBM binding intensity (ln(normalized median fluorescence intensity)); higher = stronger DNA binding
# In short: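 Plasmodium falciparum DNA-binding domains carrying a GST tag were expressed in E. coli and applied for 1 h, at about 25 μg on average, to an Agilent 4 × 180k array. The array held primer-extended double-stranded 36-bp intergenic genomic probes together with negative controls, and binding took place in 1× PBS with 1% milk, 0.2 mg/ml BSA, 0.5% salmon testes DNA and 0.03% Triton X-100. An Alexa488 anti-GST antibody detected bound protein, and the array was scanned at 488 nm. Binding intensity is taken as the highest Masliner-normalised natural-log median intensity across replicate spots of either probe orientation.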
row,Sequence,gcPBM binding intensity (ln)
1,AAAAAAAAAAAAAGTACACACATACATATAAATATA [CACACA_site8533],8.48 ± 0.4
2,AAAAAAAAAAAATACGTGCACTATGATATATTATAT,8.95 ± 0.092
3,ATAATATTTATAAATTGTACTAATGTTCAATAATTA [XGTACX_site7284],8.34 ± 0.35
4,ATATTGACAGGAAAAATTTTCTTTGAATCTTTAAAA [CACACA_negctrl_site1191],8.2 ± 0.52
5,AAATGAAAAATAAGGAAAAAAAAAAAAAAAAAAAAA [CACACA_negctrl_site1715],8.09 ± 0.49
6,TAAAATATTTCAAAGGTGCAATGATAATTTAAGACG [GTGCAC_site9609],8.8 ± 0.24
7,ACAAAAAAAATAAGCACACATATATATATATATATA [CACACA_site816],10.2 ± 0.6
8,TATGTTATATTGGACACACACAATAAACATTATGTA [CACACA_site1657],8.37 ± 0.33
9,ATATATATATATAAGCGTACGCGTAGTTAAATTAAT [XGTACX_site7693],10 ± 0.38
10,TTTTCAAAAATATATACACACATGCATATTACGGTG [CACACA_site775],8.79 ± 0.46
11,TACATGATAAGATGTAGTACATAAAAGAATAAATTA [XGTACX_site787],8.71 ± 0.26
12,ACGATAACATTTTTACGTACATATATTTTCACGGAG [XGTACX_site8764],8.8 ± 0.36
13,TATTCAATACTTAATGCACACAATAAAAAAAATATG [CACACA_site2467],8.87 ± 0.014
14,AATATATTTAATGAGTGTACATTATTTATTATTATT [XGTACX_site6889],8.39 ± 0.36
15,AAATAAAAAAAATAAAAGCAATCATAATAAAAATCT [CACACA_negctrl_site161],8.46 ± 0.38
16,AATTTATATTAAAATTGTACATTTCTTCTATAATAC [XGTACX_site8639],8.45 ± 0.42
17,TGTATGTATTTGTGTAGTACGCATAAGTAATAAAAC [XGTACX_site6704],9.12 ± 0.36
18,TACCAAAAGAAACACACACACAAAATATATAAATAT [CACACA_site1869],8.61 ± 0.54
19,TCCCATATATATATATATATATATATATATAATAAT [TGCATGCA_negctrl_site41],8.885 ± 0.049

row,Sequence,gcPBM binding intensity (ln)
1,TTTGGCTAGTCAAGTTGTACAAAAAAAAAAAAAAAA [XGTACX_site8382],8.23 ± 0.51
2,ATACTTTTAATATGCACATGCAAATATGAAATATCG [TGCATGCA_site603],8.74 ± 0.085
3,AAATATATATAAGCGTGTACACATTCTGAGTGTTGT [XGTACX_site1088],8.88 ± 0.3
4,TATCGTTTTATTCGGTTGCACCAAAAAAATAAAATA [GTGCAC_site9408],8.32 ± 0.4
5,ATAATAAAAATAAAATGTACATACATAAATATATAT [XGTACX_site6228],8.62 ± 0.28
6,AGCTATAATAAATATACACACATATATAAATATGTA [CACACA_site6583],8.1 ± 0.36
7,ATATATATATAATAAGTGCAAAAATAATGACCTATA,9.48 ± 0.099
8,TATATATTTTTATGCACACACAAAGAAAATTTTCCT [CACACA_site2863],8.765 ± 0.078
9,AAAAAAAATTAAAATAAAATATAAATATAAAATATA [GTGCAC_negctrl_site714],8.23 ± 0.24
10,AAAGTATAACGGATACCATTTATGTGATTATTTTGT [XGTACX_negctrl_site188],8.46 ± 0.35
11,AATATATAATTAATTGCACACCTTGTCACGCCAAAA [CACACA_site1174],8.64 ± 0.32
12,ATTTACCCTTGCCATGCACACTTTTTTATAGAAAAT [CACACA_site5857],9.13 ± 0.44
13,TATTAATACAGACACACACACACACTAATTAAAATA [CACACA_site7967],8.73 ± 0.47
14,GAATGAATACGTTTTACACACTTGAATATAATTTCA [CACACA_site989],8.5 ± 0.28
15,ATATATAAATTTAATACACACCCAAAAAAAAAAAAA [CACACA_site7719],8.4 ± 0.61
16,AAAATTATAAAATGGGCACACATGAAGATTGTAGTA [CACACA_site2226],8.78 ± 0.49
17,TAAATATATAAACACACACACATTAATACAGATATT [CACACA_site5851],8.74 ± 0.59
18,TTATTTATTTTTTCATGTACTTAAATATATTAATGT [XGTACX_site5804],8.64 ± 0.4
19,ATCTATATTTTTATAACACACAATGATGTACATTAC [CACACA_site6633],8.64 ± 0.33

row,Sequence,gcPBM binding intensity (ln)
1,TAGAATAATCTATAAACACACAAACCCAACAAAAGA [CACACA_site6132],8.97 ± 0.63
2,TGAAAATATTTTATATGTACATATATTATCAATACA [XGTACX_site92],8.6 ± 0.37
3,TTATTAGGTATATATGCACACAATACCCAAAACAAC [CACACA_site4221],8.87 ± 0.099
4,GGTAATAAACAATGAAGTACGTAAAGGTAAAATATT [XGTACX_site2647],9.33 ± 0.51
5,TATTTTCAAAAATATACACACACATAAATATATGTA [CACACA_site8160],8.18 ± 0.33
6,TGTAAATATAAATGTAATAAATATGTAAAAATAAAT [XGTACX_negctrl_site171],8.62 ± 0.32
7,TAATAATCAAACTATACACACATAAATAGATATATA [CACACA_site6220],8.42 ± 0.33
8,ATTTAATTTTCATGATGTACTATAGTTTAATGCACA [XGTACX_site1624],9.14 ± 0.042
9,TTATATGTATTTCTTTGTACACATTTTTATATATAT [XGTACX_site1462],9.01 ± 0.41
10,ATTATGCACCAACACACACACACACCCCTAAAAAAT [CACACA_site2568],9.43 ± 0.16
11,CACTTCAAAAAAATATGTACACATATATATATATAT [XGTACX_site3075],10.1 ± 0.25
12,TATCATTTTTTTAAAACACACATAATAATATAAATA [CACACA_site2845],8.4 ± 0.38
13,TAAATTTTATAAATCTGTACATATGAGCAAGAACAT [XGTACX_site7400],9.25 ± 0.34
14,TAAAGAGTTACCATTTGTACTTACGCACACATAAAA [XGTACX_site3145],8.45 ± 0.37
15,TTTTTATGTTATCAAATAAATATAAATATAATTCAT [CACACA_negctrl_site1522],7.93 ± 0.5
16,TATATTTGAAATATATGTACTTATAATACAGTTTAA [XGTACX_site8039],8.25 ± 0.4
17,CACAGATAAATTAACACACACACACGGATATTTATA [CACACA_site7788],8.36 ± 0.26
18,TTCCTTCAAAATTTAAGTAATAAGATAAAAATATAA [CACACA_negctrl_site1696],8.28 ± 0.47
19,ATGTATACAAATATATGTACGTATGTTCTCTTCTTT [XGTACX_site7865],8.73 ± 0.46
